{"source": "PubChem BioAssay AID624418", "about": "(National Center for Advancing Translational Sciences (NCATS), 2012)", "note": "The whole screen tested about 410,000 compounds, of which about 530 (0.13%) were called active. Inconclusive means that the source gave no clear call. Such entries were picked first, then a sample of the others. Calls come from the whole dose curve; as a rule, active = well fitted inhibition curve with a large enough effect; inconclusive = small, poorly fitted or top-dose-only effect, or another doubt; inactive = no such curve, though single readings can be large or run the other way. Potencies of inconclusive entries are doubtful fits and often do not repeat. Potency is the fitted concentration of half-maximal effect.", "data": [{"assay": "qHTS of GLP-1 Receptor Inverse Agonists: Cytotox Screen", "conditions": "HEK293 cAMP-luciferase reporter cells, luminescence, 24 h; series mostly up to 38.3 µM", "summary_of_the_method": "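Here, cytotoxicity is scored as loss of luminescence. The MLSMR collection was tested on cells seeded in medium containing 10% Nu serum, with a 24 hr compound exposure preceded by 12 hours of culture.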", "values": [{"smiles": "Cc1ccc(C)c(NC(=S)NNC(=O)c2csc3c2CCCC3)c1", "Potency": "inconclusive: 28.2 µM [inhibitor, single point]"}, {"smiles": "N#C/C(=C\\c1cccc(O)c1)c1nc2ccccc2o1", "Potency": "inconclusive: 14.1 µM [inhibitor, single point]"}, {"smiles": "CSc1nc2nccc(-c3ccc(-c4ccccc4)cc3)n2n1", "Potency": "inactive"}, {"smiles": "CC1(C)CC(NC(=O)COc2ccc3c4c(c(=O)oc3c2)CCCC4)CC(C)(C)N1", "Potency": "inactive"}, {"smiles": "CCN(CC)C1CCN(C(=O)c2ccc(OC3CCN(Cc4ccccn4)CC3)cc2)C1", "note": "(stereo not given)", "Potency": "inconclusive: 20 µM [inhibitor, single point]"}, {"smiles": "COc1cccc(CN2C(=O)CN(C3CCCCC3)C(=O)C2c2ccc(OC(C)C)c(OC)c2)c1", "note": "(stereo not given)", "Potency": "inconclusive: 31.6 µM [inhibitor, single point]"}, {"smiles": "Cc1ccc(NC(=O)NC(=S)NC(=O)c2ccccc2)cc1", "Potency": "inconclusive: 15.8 µM [inhibitor, single point]"}, {"smiles": "CSc1cccc(NC(=S)N(CCCN2CCC(C)CC2)Cc2cccs2)c1", "Potency": "inconclusive: 28.2 µM [inhibitor, single point]"}, {"smiles": "Nc1c(C(=O)Nc2ccccc2Br)sc2nc(-c3cccs3)ccc12", "Potency": "inactive"}, {"smiles": "CCN(CC)CCNC(=O)c1ccc(NC(=O)c2cn(-c3ccc(F)cc3)nc2-c2cccc(OC)c2)cc1", "Potency": "inconclusive: 28.2 µM [inhibitor, partial curve, poor fit]"}, {"smiles": "Cc1ccc(S(=O)(=O)N2CCN(C(=O)c3ccc(N4CCC(C)CC4)c([N+](=O)[O-])c3)CC2)cc1", "Potency": "inconclusive: 11.2 µM [inhibitor, partial curve, poor fit]"}, {"smiles": "O=C(NNc1ccccc1Cl)C(O)(c1cccc(C(F)(F)F)c1)c1cccc(C(F)(F)F)c1", "Potency": "inconclusive: 10 µM [inhibitor, partial curve, poor fit]"}, {"smiles": "COc1ccccc1CCNC(=O)Cc1c(C)c2cc(Cl)c(O)cc2oc1=O", "Potency": "inactive"}, {"smiles": "CCOC(=O)C1CCN(C(=S)Nc2cccc(C)c2C)CC1", "Potency": "inactive"}, {"smiles": "OCC[C@H]1C[C@H](O)[C@@H](O)[C@]2(CCCO2)O1", "Potency": "inconclusive: 28.2 µM [inhibitor, single point]"}, {"smiles": "O=C(NCc1ccccc1CN1CCCC1)c1ccc(Cl)c(S(=O)(=O)N2CCCC2)c1", "Potency": "inconclusive: 28.2 µM [inhibitor, single point]"}, {"smiles": "CC1CC=C(c2ccccc2)C(=S)N1", "note": "(stereo not given)", "Potency": "inconclusive: 11.2 µM [inhibitor, partial curve, poor fit]"}, {"smiles": "CCn1cc(/C=C(\\NC(=O)c2ccc(OC)c(OC)c2)C(=O)N2CCOCC2)c2ccccc21", "Potency": "inconclusive: 28.2 µM [inhibitor, partial curve, poor fit]"}, {"smiles": "COCCn1c(=S)[nH]c2sc3c(c2c1=O)CCC(C)C3", "note": "(stereo not given)", "Potency": "inactive"}, {"smiles": "Cc1cc(N)n(Cc2ccc(Cl)cc2)n1", "Potency": "inactive"}, {"smiles": "NC(=O)C1CCN(S(=O)(=O)c2cc3c(cc2Cl)NC(=O)CO3)CC1", "Potency": "inactive"}, {"smiles": "CCOc1ccc2c(c1)C(=NNC(=O)c1ccncc1)c1cc(OCC)ccc1-2", "Potency": "inconclusive: 10 µM [inhibitor, partial curve, poor fit]"}, {"smiles": "CC(=O)C1=C(C)Nc2ncnn2C1c1cccc(OCc2ccccc2)c1", "note": "(stereo not given)", "Potency": "inconclusive: 28.2 µM [inhibitor, single point]"}, {"smiles": "Cc1n[nH]c(C)c1CCC(=O)N/N=C/c1c[nH]c2ccccc12", "Potency": "inconclusive: 3.16 µM [inhibitor, full curve, poor fit]"}, {"smiles": "O=C(O)CC1c2ccccc2CCN1C(=O)Nc1cc(Cl)ccc1Cl", "note": "(stereo not given)", "Potency": "inactive"}, {"smiles": "COc1ccc(-n2c(C)cc(C(=O)Cn3c(NCCO)nc4ccccc43)c2C)cc1", "Potency": "inactive"}, {"smiles": "CCCCc1n[nH]c(=S)n1Cc1ccc(C)cc1", "Potency": "inconclusive: 10 µM [inhibitor, partial curve]"}, {"smiles": "OC(CNC1CCCCCC1)COc1cccc2ccccc12", "note": "(stereo not given)", "Potency": "inconclusive: 22.4 µM [inhibitor, single point]"}, {"smiles": "CN(C)CC(CCC(CN(C)C)C(=O)c1ccccc1)C(=O)c1ccccc1", "note": "(stereo not given)", "Potency": "inconclusive: 0.501 µM [inhibitor, full curve, poor fit]"}, {"smiles": "Cc1cccc2cc(CN(C(=O)c3cccc([N+](=O)[O-])c3)C(C)C)c(=O)[nH]c12", "Potency": "inconclusive: 22.4 µM [inhibitor, single point]"}, {"smiles": "CC(C)CN(CC(C)C)C(=O)c1cccc(S(=O)(=O)N2CCc3ccccc32)c1", "Potency": "inconclusive: 12.6 µM [inhibitor, single point]"}, {"smiles": "COC(=O)COc1ccc(-c2nnc(Nc3ccc(O)cc3)c3ccccc23)cc1", "Potency": "inconclusive: 28.2 µM [inhibitor, single point]"}, {"smiles": "S=C(Nc1nc2c(s1)CCCC2)NC1CC1", "Potency": "inconclusive: 3.55 µM [inhibitor, full curve]"}, {"smiles": "Cc1ccc(/C=N/Nc2ccc3ccccc3n2)o1", "Potency": "inconclusive: 28.2 µM [inhibitor, single point]"}, {"smiles": "Cc1cc(C)c(C)c(N=Nc2nc3ccccc3n2C)c1C", "Potency": "inconclusive: 3.98 µM [inhibitor, full curve]"}, {"smiles": "CC(=NNC(=S)N1CCCCC1)c1ccccn1", "Potency": "inconclusive: 0.316 µM [inhibitor, full curve, poor fit]"}, {"smiles": "Cc1ccc(C2C3=C(CC(C)(C)CC3=O)N=C3c4ccccc4C(=O)C32)cc1", "note": "(stereo not given)", "Potency": "inconclusive: 8.91 µM [inhibitor, partial curve]"}, {"smiles": "Cc1cc(OCC(O)CNC(C)c2ccccc2)ccc1C(C)C", "note": "(stereo not given)", "Potency": "inconclusive: 8.91 µM [inhibitor, single point]"}, {"smiles": "O=C(N/N=C/c1cn(-c2ccccc2)nc1-c1cccnc1)c1cccnc1", "Potency": "inactive"}, {"smiles": "Cc1ccc(CCNC(=O)c2cc3c(s2)-c2c(C)cccc2OC3)cc1", "Potency": "inactive"}, {"smiles": "COc1cccc(CNC(=O)c2ccc(-c3nc(COc4ccccc4)c(C)o3)cc2)c1", "Potency": "inactive"}, {"smiles": "OC(CNCCc1ccc(Cl)cc1)COc1ccc2ccccc2c1", "note": "(stereo not given)", "Potency": "inconclusive: 14.1 µM [inhibitor, single point]"}, {"smiles": "COc1ccccc1N1CCN(CCCCOc2ccc(F)cc2)CC1", "Potency": "inconclusive: 12.6 µM [inhibitor, single point]"}, {"smiles": "O=C(CN1CCN(C/C=C/c2ccccc2)CC1)NCc1ccc(Cl)cc1", "Potency": "inactive"}, {"smiles": "Fc1ccc2nc(Nc3nc4cc5c(cc4s3)OCO5)sc2c1", "Potency": "inconclusive: 10 µM [inhibitor, single point]"}, {"smiles": "CCN(CC)c1ccc(NC(=S)NCC2CCCO2)cc1", "note": "(stereo not given)", "Potency": "inconclusive: 28.2 µM [inhibitor, single point]"}, {"smiles": "O=C(CN1C(=O)NC2(CCCC2)C1=O)N1CCN(S(=O)(=O)c2cccc(F)c2)CC1", "Potency": "inconclusive: 2.51 µM [inhibitor, partial curve, poor fit]"}, {"smiles": "C=CCNC(=S)NC(=O)c1ccc(C)c(Br)c1", "Potency": "inconclusive: 28.2 µM [inhibitor, single point]"}, {"smiles": "C/C=C(\\CS(=O)(=O)c1ccccc1)S(=O)(=O)c1ccccc1", "Potency": "inconclusive: 14.1 µM [inhibitor, partial curve, poor fit]"}, {"smiles": "Fc1cccc2sc(Nc3nc4cc5c(cc4s3)OCCO5)nc12", "Potency": "inactive"}, {"smiles": "Cc1ncccc1C(=O)N1CCCC(C(=O)c2ccc3c4c(cccc24)CC3)C1", "note": "(stereo not given)", "Potency": "inconclusive: 28.2 µM [inhibitor, single point]"}, {"smiles": "COC1CCCN(Cc2cn(C)nc2-c2ccc(Oc3ccccc3)cc2)C1", "note": "(stereo not given)", "Potency": "inactive"}, {"smiles": "O=S(=O)(Nc1ccc2c(c1)oc1ccccc12)N1CCCC1", "Potency": "inactive"}, {"smiles": "NC(=S)N/N=C/c1ncc(C(F)(F)F)cc1Cl", "Potency": "inconclusive: 1.26 µM [inhibitor, partial curve, poor fit]"}, {"smiles": "CCOC(=O)c1c(-c2ccccc2)oc2ccc(N(C(C)=O)S(=O)(=O)c3ccc(CC)cc3)cc12", "Potency": "inactive"}, {"smiles": "CC(NC(=O)CCCCCCN1C(=O)c2ccccc2C1=O)c1ccc2c(c1)CCCC2", "note": "(stereo not given)", "Potency": "inactive"}, {"smiles": "Cc1nonc1OCCNCc1c(C(=O)N(C)C)nc2ccc(Cl)cn12", "Potency": "inactive"}, {"smiles": "S=C(NCc1ccccc1)NCc1cccc(Cl)c1", "Potency": "inconclusive: 31.6 µM [inhibitor, single point]"}, {"smiles": "CCOC(=O)c1sc(C)c2c1NC(c1ccc(Cl)cc1)NC2=O", "note": "(stereo not given)", "Potency": "inconclusive: 31.6 µM [inhibitor, single point]"}, {"smiles": "COc1cccc(CSc2nc3ccccc3cc2C=O)c1", "Potency": "inconclusive: 20 µM [inhibitor, single point]"}, {"smiles": "Cc1cccc(NS(=O)(=O)c2ccc3[nH]c4c(c3c2)CCCCCC4)c1", "Potency": "inconclusive: 10 µM [inhibitor, single point]"}, {"smiles": "O=C(NCC1CC1)c1ccccc1Cl", "Potency": "inactive"}, {"smiles": "CC(=O)c1cccc(N(C(=O)c2ccco2)C(C(=O)NC2CCCC2)c2ccc(N3CCOCC3)cc2)c1", "note": "(stereo not given)", "Potency": "inactive"}, {"smiles": "C=CCC1S/C(=N/N=C/c2cccs2)NC1=O", "note": "(stereo not given)", "Potency": "inconclusive: 11.2 µM [inhibitor, single point]"}, {"smiles": "Cc1ccc2c(Cl)cc(Cl)c(O)c2n1", "Potency": "inconclusive: 2.82 µM [inhibitor, full curve]"}, {"smiles": "CC(CCc1ccccc1)NC(=O)Cc1ccc([N+](=O)[O-])cc1", "note": "(stereo not given)", "Potency": "inactive"}, {"smiles": "COc1ccc(/C=N\\NC(=O)c2cc(O)c(O)c(O)c2)cc1COc1ccc(C(=O)OCC(C)C)cc1", "Potency": "inconclusive: 28.2 µM [inhibitor, single point]"}, {"smiles": "CN(C(=O)c1ccc(NC(=O)Cc2ccc([N+](=O)[O-])cc2)cc1)C1CCCC1", "Potency": "inconclusive: 28.2 µM [inhibitor, single point]"}, {"smiles": "CCOc1ccc(NC(=O)c2cc(OC)nc3ccccc23)cc1", "Potency": "inconclusive: 1.41 µM [inhibitor, partial curve, poor fit]"}, {"smiles": "O=C(NC(=S)Nc1ccccc1N1CCCC1)c1ccco1", "Potency": "inconclusive: 28.2 µM [inhibitor, single point]"}]}]}
